# Experimental data reported in PubChem BioAssay AID1745853 (National Center for Advancing Translational Sciences (NCATS), 2022).
# The other results are listed elsewhere or left out. Further columns of the screen follow, without active or inactive calls.
# How the values were obtained:
# Assay in all cases: Primary Screen for Target Class Profiling of Small Molecule Inhibitors of Methyltransferases
# [1] = biological target: Glycine N-methyltransferase (Homo sapiens) (UniProt Q14749); conditions: purified enzyme, MTase-Glo SAH luminescence; measured here: GNMT inhibition; at 40 µM; stronger effect = lower value
# Method in brief: (§1)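 Each enzyme was reacted with SAM and its substrate, with compounds tested once at 40 uM; SAH formed was read by MTase-Glo luminescence.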
# [2] = biological target: Guanidinoacetate N-methyltransferase (Homo sapiens) (UniProt Q14353); conditions: purified enzyme, MTase-Glo SAH luminescence; measured here: GAMT inhibition; at 40 µM; stronger effect = lower value
# Method in brief: as §1
# [3] = biological target: Histamine N-methyltransferase (Homo sapiens) (UniProt P50135); conditions: purified enzyme, MTase-Glo SAH luminescence; measured here: HNMT inhibition; at 40 µM; stronger effect = lower value
# Method in brief: as §1
# [4] = biological target: Nicotinamide N-methyltransferase (Homo sapiens) (UniProt P40261); conditions: purified enzyme, MTase-Glo SAH luminescence; measured here: NNMT inhibition; at 40 µM; stronger effect = lower value
# Method in brief: as §1
# [5] = biological target: Phenylethanolamine N-methyltransferase (Homo sapiens) (UniProt P11086); conditions: purified enzyme, MTase-Glo SAH luminescence; measured here: PNMT inhibition; at 40 µM; stronger effect = lower value
# Method in brief: as §1
# On the % scale 0 is the no-effect control and ±100 the full control effect.
Structure (SMILES),"activity change, negative = inhibition [1] [%]","activity change, negative = inhibition [2] [%]","activity change, negative = inhibition [3] [%]","activity change, negative = inhibition [4] [%]","activity change, negative = inhibition [5] [%]"
COC(=O)CNC(=O)NCCc1ncc(C)n1C1CCCC1,-2.05,-2.74,-19.3,-6,-5.28
COc1ccc(CNC(=O)C[C@@H]2C[C@H]3O[C@H](CNC4CCCC4)[C@@H](O)[C@H]3O2)cc1,-4.34,-3.21,-2.78,-9.31,6.78
CCNC(=O)N1CCCN(c2ccc(C(=O)NCCc3ccc(Cl)cc3Cl)cc2NC(=O)c2cccc(Cl)c2)CC1,-3.19,-16.9,7.02,-36.6,-13.4
C=C[C@@]1(C)CC(=O)C2[C@](C)(O1)[C@@H](OC(C)=O)[C@@H](O)[C@H]1C(C)(C)CCC[C@]21C (stereo not given in full),4.24,9.25,12.3,-5.97,5.8
COc1ccccc1N1CCN(CC[C@H]2CN(C(=O)NC3CCCCC3)CC[C@H]2CC(=O)O)CC1,-2.91,-7.2,-4.09,-8.48,-9.68
O=C(CCCCCCC(=O)Nc1ccc([C@H]2O[C@@H](CSc3nc(-c4ccccc4)c(-c4ccccc4)o3)C[C@@H](c3ccc(CO)cc3)O2)cc1)NO,-5.17,7.92,-2.81,-28.4,-10.4
CCOc1ccc(CNS(=O)(=O)c2ccc3[nH]c(=O)[nH]c3c2)cc1OC,3.94,0.138,5.21,0.394,-11.3
CC(=O)N[C@H]1C[C@@H](c2cc(C)c(C)cc2C)O[C@@H](C(C)(C)C)C1,-5.26,-6.03,-6.39,-8.54,-4.02
Cn1c(=O)c2ccccc2n2c(CCC(=O)NCCCN3CCN(c4cccc(Cl)c4)CC3)nnc12,-2.73,3.49,-1.84,0.3,0.942
Cc1ccc(N2C(=O)c3cc4ccccc4n3CC2(C)C(=O)NC2CCCC2)cc1 (stereo not given),4.32,0,0.819,5,1.27
Cc1ccccc1CN1CCn2c1nc1c(c2=O)CN(Cc2ccccc2)CC1,2.81,3,0.777,-13.3,-5.83
Cc1ccc(NS(=O)(=O)c2cc3c(cc2Cl)n(C)c(=O)n3C)cc1C,-3.34,3.62,-6.31,-11.5,-6.83
CN1CCC(C(=O)N2CCC(n3c(=O)[nH]c4ccccc43)CC2)CC1,-0.145,-1.34,-17.1,2.76,1.35
COCC1CN(C2CCC2)CC12CCN(S(=O)(=O)c1cnc[nH]1)CC2 (stereo not given),-5.61,-6.25,-3.71,-11.3,-2.65
Cn1c(=O)c2ccc(C(=O)NC3CCCC3)cc2n2c(=O)n(CC(=O)Nc3cccc(Cl)c3)nc12,1.98,1.1,4.77,-3.51,1.16
CC1(C(=O)NC2CCCCC2)Cn2c(ccc2-c2ccco2)C(=O)N1CCCN1CCCCC1 (stereo not given),6.97,4.77,4.11,11.2,3.09
O=C(Cn1ncc2ccccc2c1=O)N1CCCCC1CCn1cccn1 (stereo not given),-5.23,-9.13,-4.29,-8.73,-10.5
Cc1ccc(S(=O)(=O)N2CCc3nc4cc[nH]n4c(=O)c3C2)cc1C,-17.2,-11.1,-8.62,-19.3,-11.8
Cc1ccccc1CN1C(=O)c2ccc(-c3ccccc3)n2CC1(C)C(=O)NC1CCCCCCC1 (stereo not given),-2.54,0.474,-4.4,-3.4,0.618

Structure (SMILES),"activity change, negative = inhibition [1] [%]","activity change, negative = inhibition [2] [%]","activity change, negative = inhibition [3] [%]","activity change, negative = inhibition [4] [%]","activity change, negative = inhibition [5] [%]"
CC1CCCCC1NC(=O)C1(C)Cn2c(cc3sccc32)C(=O)N1Cc1cccs1 (stereo not given),0.327,4.91,-3.35,-7.88,-2.19
O=[N+]([O-])c1ccc(Oc2ccc3c(c2)CCC(c2ccccc2)O3)nc1 (stereo not given),-3.26,-16.6,6.77,-17,-9.72
O=C(/C=C/c1ccc(O)cc1)OCC1OC(O)C(OC2OC(CO)C(O)C(O)C2O)C(O)C1O (stereo not given),4.91,-2.13,5.07,-9.96,2.57
CCOC(=O)C1CCN(C(=O)c2ccc3oc(-c4cccnc4)nc3c2)CC1,-1.71,-1.87,0.335,-6.37,-7.84
O=C(Nc1cc(-c2ccncc2)nn1-c1ccccc1)c1ccc(Cl)cc1,-9.6,-6.59,-6.54,-16.7,-6.29
CCCN1CC2(CCN(Cc3nc(CCOC)no3)CC2)CC1C(=O)O (stereo not given),-4.65,-10.8,-5.07,-13.1,-10.5
CCCCCCCCCC(=O)NC(CN1CCOCC1)[C@H](O)c1ccccc1 (stereo not given in full),-8.56,-1.21,-1.49,-13.6,-1.77
COc1cccc(CNC(=O)c2cc3n(n2)CC(C)(C(=O)NCc2ccccc2)N(C)C3=O)c1 (stereo not given),-4.69,-0.792,-6.99,-7.45,-6.96
CS(=O)(=O)N(Cc1cccnc1)C1CN(C(=O)Nc2ccc3c(c2)OCCO3)C1,-2.41,0.973,1.6,-5.71,-1.24
COCCNC(=O)[C@@H]1C[C@H](Oc2ccccc2)CN1C(=O)c1cnccn1,2.93,1.51,0.978,3.42,-0.803
Cc1nc2cc(C(=O)NCc3ccccn3)nn2c(C)c1Cc1cccc(Cl)c1,-15.6,7.1,1.86,-40.5,-3.99
COc1ccccc1CNC(=O)C(C)n1ccc2cc(S(=O)(=O)N3CCCC3)ccc21 (stereo not given),0.421,5.08,-2.61,-0.145,-1.87
CC1CCN(S(=O)(=O)c2ccc3c(ccn3CCC(=O)N3CCN(c4ccccc4)CC3)c2)CC1,-5.51,-4.89,-5.4,-9.65,-6.29
COCC(=O)N[C@H]1C[C@@H](CO)N(Cc2cccc(OC)c2)C1,-5.58,-8.8,-6.3,-7.22,-10.2
CCc1cccc(N2C(=O)c3ccc(-c4ccco4)n3CC2(C)C(=O)NCc2ccc(Cl)cc2)c1 (stereo not given),-8.71,4.99,1.04,-2.62,-3.35
CC(=O)[C@@H]1C[C@H](C(C)(C)O[C@@H]2O[C@H](CO)[C@@H](O)[C@H](O)[C@H]2O)CC[C@@]2(CO)OC(=O)C[C@@H]12,0,7.24,7.91,-4.45,4.59
C=C1CCC2C(C)(CO[C@@H]3O[C@H](CO)[C@@H](O)[C@H](O)[C@H]3O)C(O)CCC2(C)C1C(=O)CC1=CCOC1=O (stereo not given in full),1.97,3.72,13.5,-7.24,4.53
CCOC(=O)c1cc2n(n1)CC(C)(C(=O)NCCC(C)C)N(c1cccc(C)c1C)C2=O (stereo not given),-2.96,0.013,5.7,7.25,1.74
